First the molecules themselves.
T1: RBFOX1 RRM (Homo sapiens, UniProt Q9NWB1 109-208)
T1 sequence: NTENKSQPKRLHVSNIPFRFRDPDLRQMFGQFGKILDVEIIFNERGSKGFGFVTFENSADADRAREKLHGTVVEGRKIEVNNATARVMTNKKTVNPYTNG

B1: AGAAACG (DNA:RNA)
RNA: GGGAGACCGGAAUUCAGAUUGUCCAGAAACGUUAAAUCCCGUCGUAGCCACCA
DNA 1: CAATCTGAATTCCGGTCTCCC
DNA 2: TGGTGGCTACGACGGGATT
B2: ACUUGCU (DNA:RNA)
RNA: B1 RNA with G26C, A27U, A28U, A29G, G31U
DNA 1: CAATCTGAATTCCGGTCTCCC
DNA 2: TGGTGGCTACGACGGGATT
B3: GGACACG (DNA:RNA)
RNA: B1 RNA with A25G, A28C
DNA 1: CAATCTGAATTCCGGTCTCCC
DNA 2: TGGTGGCTACGACGGGATT
B4: GAGCAGC (DNA:RNA)
RNA: B1 RNA with A25G, G26A, A27G, A28C, C30G, G31C
DNA 1: CAATCTGAATTCCGGTCTCCC
DNA 2: TGGTGGCTACGACGGGATT
B5: AGCCACA (DNA:RNA)
RNA: B1 RNA with A27C, A28C, G31A
DNA 1: CAATCTGAATTCCGGTCTCCC
DNA 2: TGGTGGCTACGACGGGATT
B6: AGGUAUG (DNA:RNA)
RNA: B1 RNA with A27G, A28U, C30U
DNA 1: CAATCTGAATTCCGGTCTCCC
DNA 2: TGGTGGCTACGACGGGATT
B7: UAAAAGG (DNA:RNA)
RNA: B1 RNA with A25U, G26A, C30G
DNA 1: CAATCTGAATTCCGGTCTCCC
DNA 2: TGGTGGCTACGACGGGATT
B8: UAAUUUG (DNA:RNA)
RNA: B1 RNA with A25U, G26A, A28U, A29U, C30U
DNA 1: CAATCTGAATTCCGGTCTCCC
DNA 2: TGGTGGCTACGACGGGATT
B9: CCAAGCA (DNA:RNA)
RNA: B1 RNA with A25C, G26C, A29G, G31A
DNA 1: CAATCTGAATTCCGGTCTCCC
DNA 2: TGGTGGCTACGACGGGATT
B10: AUCCAUC (DNA:RNA)
RNA: B1 RNA with G26U, A27C, A28C, C30U, G31C
DNA 1: CAATCTGAATTCCGGTCTCCC
DNA 2: TGGTGGCTACGACGGGATT
B11: GUCAAGG (DNA:RNA)
RNA: B1 RNA with A25G, G26U, A27C, C30G
DNA 1: CAATCTGAATTCCGGTCTCCC
DNA 2: TGGTGGCTACGACGGGATT
B12: UUUGGUG (DNA:RNA)
RNA: B1 RNA with A25U, G26U, A27U, A28G, A29G, C30U
DNA 1: CAATCTGAATTCCGGTCTCCC
DNA 2: TGGTGGCTACGACGGGATT
B13: GUCAGAC (DNA:RNA)
RNA: B1 RNA with A25G, G26U, A27C, A29G, C30A, G31C
DNA 1: CAATCTGAATTCCGGTCTCCC
DNA 2: TGGTGGCTACGACGGGATT
B14: CAAUUCC (DNA:RNA)
RNA: B1 RNA with A25C, G26A, A28U, A29U, G31C
DNA 1: CAATCTGAATTCCGGTCTCCC
DNA 2: TGGTGGCTACGACGGGATT
B15: AAACAUG (DNA:RNA)
RNA: B1 RNA with G26A, A28C, C30U
DNA 1: CAATCTGAATTCCGGTCTCCC
DNA 2: TGGTGGCTACGACGGGATT
B16: ACUUAAU (DNA:RNA)
RNA: B1 RNA with G26C, A27U, A28U, C30A, G31U
DNA 1: CAATCTGAATTCCGGTCTCCC
DNA 2: TGGTGGCTACGACGGGATT
B17: AAGCUCC (DNA:RNA)
RNA: B1 RNA with G26A, A27G, A28C, A29U, G31C
DNA 1: CAATCTGAATTCCGGTCTCCC
DNA 2: TGGTGGCTACGACGGGATT
B18: AUUAAAA (DNA:RNA)
RNA: B1 RNA with G26U, A27U, C30A, G31A
DNA 1: CAATCTGAATTCCGGTCTCCC
DNA 2: TGGTGGCTACGACGGGATT
B19: CCGGUCU (DNA:RNA)
RNA: B1 RNA with A25C, G26C, A27G, A28G, A29U, G31U
DNA 1: CAATCTGAATTCCGGTCTCCC
DNA 2: TGGTGGCTACGACGGGATT
B20: ACAUGCC (DNA:RNA)
RNA: B1 RNA with G26C, A28U, A29G, G31C
DNA 1: CAATCTGAATTCCGGTCTCCC
DNA 2: TGGTGGCTACGACGGGATT

Residue numbers refer to the chain shown, from its start. Some of the results follow.

This experiment concerns the target T1, RBFOX1 RRM. Kind of experiment: EMSA; HiTS-Eq, 1 nM pool, 10 min; buffer printed only for the single-RNA assays: 10 mM Tris pH 7.5, 150 mM NaCl, 3.4 mM EDTA, 0.001% NP-40, 30 C. The conditions noted are these: tags: His6 N-terminal (pET28a); label: 5' 32P. In short, it runs like this: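 Relative association constants, normalised to the cognate motif, were derived by comparing read counts of each RNA species with those of the control reaction. The RNA sequenced was the free fraction, separated by 8% native PAGE after a 10 min equilibration in 50 µL of 1 nM 5′-radiolabelled RNA (7 randomized nucleotides) with increasing concentrations of purified wild-type or mutant RbFox RRM.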
A general note: Mobility shift assays separate free from complexed probe on a gel.
B1: the binding signal was 0.0036 KA relative to UGCAUGU.

Turning to B2, the binding signal was 0.00904 KA relative to UGCAUGU. To B3 belongs 0.022 KA relative to UGCAUGU; to B4, 0.00993 KA relative to UGCAUGU; to B5, 0.00408 KA relative to UGCAUGU. The result for B6 reads 0.0195 KA relative to UGCAUGU; that for B7, 0.00376 KA relative to UGCAUGU.

For the molecule B8, the binding signal is 0.0234 KA relative to UGCAUGU. To B9 belongs 0.0141 KA relative to UGCAUGU.

Regarding B10, the binding signal was 0.000667 KA relative to UGCAUGU. Take B11: the binding signal is 0.00703 KA relative to UGCAUGU. As for B12, the binding signal is 0.0303 KA relative to UGCAUGU. To B13 belongs 0.0121 KA relative to UGCAUGU; to B14, 0.000827 KA relative to UGCAUGU. Turning to B15, the binding signal was 0.00224 KA relative to UGCAUGU. On to B16, for which the binding signal was 0.000828 KA relative to UGCAUGU. The result for B17 reads 0.00323 KA relative to UGCAUGU. The result for B18 reads 0.00127 KA relative to UGCAUGU; that for B19, 0.00289 KA relative to UGCAUGU.

In the case of B20, the binding signal was 0.00396 KA relative to UGCAUGU.

Values taken from PMC9911399, “Two distinct binding modes provide the RNA-binding protein RbFox with extraordinary sequence specificity”.
